The whole screen tested about 310,000 compounds, of which about 14,000 (4.5%) showed an effect of 50% or more. The effect is printed as a negative number. The list shows a part of the results.
The compounds below were run against human ether-à-go-go-related gene (hERG) potassium channel (human, UniProt Q12809) (assay: primary screen, population patch clamp on CHO cells stably expressing hERG).
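Further: peak tail current of the secondary pulse compared with the same well before compound.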

Sequence of human ether-à-go-go-related gene (hERG) potassium channel (Q12809 whole entry, looked up): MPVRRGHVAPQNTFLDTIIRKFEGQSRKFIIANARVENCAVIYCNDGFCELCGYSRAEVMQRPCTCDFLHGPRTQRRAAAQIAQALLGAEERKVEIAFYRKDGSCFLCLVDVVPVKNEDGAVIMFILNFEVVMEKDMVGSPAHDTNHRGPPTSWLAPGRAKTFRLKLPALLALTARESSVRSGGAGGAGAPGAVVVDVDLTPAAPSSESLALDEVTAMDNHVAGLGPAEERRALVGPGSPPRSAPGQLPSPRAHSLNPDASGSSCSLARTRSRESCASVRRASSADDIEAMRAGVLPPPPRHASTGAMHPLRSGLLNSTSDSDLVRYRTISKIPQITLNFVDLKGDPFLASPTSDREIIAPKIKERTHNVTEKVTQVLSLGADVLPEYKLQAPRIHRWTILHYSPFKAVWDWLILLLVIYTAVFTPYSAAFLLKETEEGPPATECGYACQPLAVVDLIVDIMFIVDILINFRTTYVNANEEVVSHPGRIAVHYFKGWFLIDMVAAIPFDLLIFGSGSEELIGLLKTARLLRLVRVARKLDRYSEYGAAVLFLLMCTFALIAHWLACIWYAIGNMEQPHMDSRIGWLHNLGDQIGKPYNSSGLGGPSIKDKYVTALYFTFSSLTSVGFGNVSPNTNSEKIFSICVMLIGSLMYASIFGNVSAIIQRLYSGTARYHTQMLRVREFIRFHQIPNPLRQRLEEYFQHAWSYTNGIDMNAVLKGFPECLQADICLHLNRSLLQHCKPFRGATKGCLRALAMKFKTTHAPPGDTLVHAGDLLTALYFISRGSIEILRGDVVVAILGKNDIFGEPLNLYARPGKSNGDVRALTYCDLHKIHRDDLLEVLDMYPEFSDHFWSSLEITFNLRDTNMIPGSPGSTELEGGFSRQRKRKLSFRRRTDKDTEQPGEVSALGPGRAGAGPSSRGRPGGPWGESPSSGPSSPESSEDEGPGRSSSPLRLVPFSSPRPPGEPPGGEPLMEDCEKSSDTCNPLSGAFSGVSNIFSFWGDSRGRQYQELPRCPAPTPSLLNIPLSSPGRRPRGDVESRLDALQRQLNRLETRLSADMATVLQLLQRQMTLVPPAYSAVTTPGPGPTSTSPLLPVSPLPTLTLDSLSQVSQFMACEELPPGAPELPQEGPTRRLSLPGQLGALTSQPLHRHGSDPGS

Structure (SMILES)	hERG current change (%, negative = inhibition) at 10uM
O=C(O)c1ccccc1C(=O)N1CC=C(c2ccccc2)CC1	3.44%
O=C(CN(C(=O)c1csnn1)c1cccc(C(F)(F)F)c1)NC1CCCC1	4.49%
CCOC(=O)c1c(-c2ccccc2Cl)csc1NC(=O)c1cc(S(=O)(=O)N2CCOCC2)ccc1C	12.4%
CC(C)(C)N(Cc1ccccc1)C(=O)COC(=O)Cn1cnc2ccccc2c1=O	-4.48%
COC(=O)C(NS(=O)(=O)c1ccccc1Cl)c1ccccc1 (centres unmarked)	3.81%
CC(=O)NC(Cc1cccc(C)c1)C(=O)NC1CCN(S(=O)(=O)c2ccccc2)CC1 (centres unmarked)	2.86%
Cc1ccc(SCC(=O)OCC(=O)NCCNC(=O)COC(=O)CSc2ccc(C)c(C)c2)cc1C	6.56%
COc1ccc(CN2CCC(C)CC2)cc1OCc1ccccc1	-49.6%
COc1cccc(NC(=S)N(CCCN2CCC(C)CC2)Cc2cccs2)c1	-59.2%
CCc1ccc(C(=O)NC(C(=O)NCC2CCCO2)C(C)C)cc1 (centres unmarked)	15.1%
CCOc1[nH]n(-c2ccccc2)c(=O)c1C=NCC(=O)OC	-18.8%
O=C(NCc1ccco1)c1ccc2c(c1)N(Cc1ccc(Cl)cc1)CCS2	-18%
COc1cc(/C=C/C(=O)OCC(=O)NCC(=O)Nc2cccc(C)c2C)ccc1OC(F)F	-25.7%
O=C(Cn1c(=O)oc2ccccc21)N1CCOCC1	15.4%
Cc1c(NC(=O)/C(C#N)=C/c2ccc(-c3ccc(Cl)c(Cl)c3)o2)c(=O)n(-c2ccccc2)n1C	-4.97%
C=CCN(CC=C)Cc1cc(=O)n2c(-c3ccccc3)csc2n1	0.138%
CCOC(=O)[C@H]1[C@H]2COc3ccc(Cl)cc3[C@@H]2N2C(=O)c3ccc(F)cc3NC(=O)[C@@]12C	-3.63%
COc1ccc(Cn2nnnc2C(c2ccc3ncccc3c2)N2CCN(C3CCCCC3)CC2)cc1 (centres unmarked)	-82.8%
O=C(COc1ncnc2sccc12)Nc1ccc(F)cc1F	-3.82%
Cc1cc(N2CCOCC2)c2c(N)cc(C)c(C)c2n1	-44.9%
CCCCNC(=O)c1ccc2c(c1)C(=O)N(Cc1ccncc1)C2=O	-12.5%
COC(=O)C(NS(=O)(=O)c1cccc(S(=O)(=O)NC(C(=O)OC)c2ccccc2)c1)c1ccccc1 (centres unmarked)	-45.7%

Structure (SMILES)	hERG current change (%, negative = inhibition) at 10uM
COc1ccccc1Nc1nc(C)c(C(=O)Nc2ccccc2)s1	10.3%
CCC(C)[C@H](NC(=O)Nc1ccc(Oc2ccccc2)cc1)C(=O)O (some centres unmarked)	17.1%
S=c1[nH]nc(Cc2ccc(Cl)cc2)n1-c1ccc2c(c1)OCCO2	2.4%
O=Cc1cn(Cc2ccc(Br)cc2)c2ccccc12	15%
Cc1ccc(C2C(/C=C3/SC(=S)NC3=O)=C(c3cccs3)Oc3ccccc32)cc1 (centres unmarked)	0.741%
CSc1ccc(/C=C/c2cc(=O)c3ccccc3[nH]2)cc1	3.9%
CSc1nsc(SCC(=O)Nc2ccc(C(C)=O)cc2)n1	-6.63%
COc1cccc(NC(=O)C2CCN(S(=O)(=O)c3ccc4c(c3)C(C)(C)C(=O)N4C)CC2)c1	17.9%
COc1ccc(S(=O)(=O)n2[nH]c(=O)c(CCO)c2C)c([N+](=O)[O-])c1	15.6%
Cn1c(SCC(=O)NC(C)(C)C)nnc1-c1cnccn1	12.8%
COc1ccc(F)c(-c2nc(CN3CCN(C(=O)c4ccco4)CC3)c(C)o2)c1	-35.9%
Cc1occc1C(=O)Nc1ccc(OCc2ccccc2)cc1	6.72%
CC(=O)c1cccc(NC(=O)NN2CCN(C)CC2)c1	20.3%
COc1ccc(CNC(=O)C2CCN(C(=O)c3sccc3-n3cccc3)CC2)cc1	-9.56%
COc1ccccc1NC(=O)CCc1c(C)nc2c(-c3ccc(F)cc3)c(C)nn2c1C	-20.3%
O=S(=O)(c1ccc(SCCOc2ccc(F)cc2)nc1)N1CCCC1	-5.19%
O=C(COc1ccccc1F)NNC(=O)Cc1ccc(S(=O)(=O)N2CCOCC2)s1	1.34%
O=C1CN(CC(=O)NC(=O)NCc2ccccc2)CCN1	9.71%
CCOc1ccc(-c2nc(CCl)cs2)cc1OC.Cl	16.2%
C(=C\c1ccncc1)/c1ccncc1	-9.01%
COc1ccc(NS(=O)(=O)c2ccc(-n3cnnn3)cc2)cc1OC	-4.87%
COc1ccc(OC)c(-n2c(C)nc3cc(C(=O)O)ccc32)c1	1.96%

Structure (SMILES)	hERG current change (%, negative = inhibition) at 10uM
CC(CCC(C)OC(=O)c1ccccc1C(=O)O)OC(=O)c1ccccc1C(=O)O (centres unmarked)	21.1%
Cc1cccc(-n2c(O)c(/C=C/C=Nc3ccccc3)c(=O)[nH]c2=O)c1	-9.75%
O=C(CCN1C(=O)c2ccccc2S1(=O)=O)Nc1cc(Cl)ccc1Cl	1.66%
O=C(CSc1nnc(CNC(=O)c2ccccc2F)o1)Nc1ccc2c(c1)OCO2	-5.97%
COC(=O)c1ccc(OC)cc1OCC(=O)N1CCN(c2ccc(F)cc2)CC1	-33%
COc1ccc(CNC(=O)CCSCc2ccccc2Cl)c(OC)c1	-7.62%
CCOc1ncccc1C(=O)OC(C)C(=O)NC(=O)NC1CCCCC1 (centres unmarked)	-43.7%
COC(=O)Nc1ccc(S(=O)(=O)N2CCCC(C(=O)N3CCOCC3)C2)cc1 (centres unmarked)	-7.43%
CCC(C(=O)NCCc1c[nH]c2ccc(C)cc12)c1ccccc1 (centres unmarked)	12.1%
CN(Cc1ccccc1)c1ncc(C=O)s1	12.9%
COC(=O)c1cccc(NC(=O)CSc2nc(C)cc(=O)[nH]2)c1	19.7%
COc1ccc(OCC#CCN2CC(C)OC(C)C2)cc1.O=C(O)C(=O)O (centres unmarked)	-4.35%
C=CCN(Cc1nc(-c2ccc(OC)c(OC)c2)oc1C)C1CCS(=O)(=O)C1 (centres unmarked)	3.66%
C=CCn1c(COc2ccc(OC)cc2)nnc1SCn1nnc2ccccc2c1=O	-27.1%
O=C1c2[nH]nc(-c3ccccc3O)c2C(c2cccc(Cl)c2)N1CC1CCCO1 (centres unmarked)	-3.84%
COc1ccc(CNC(=O)C(c2ccco2)N(Cc2ccccc2)C(=O)Cc2cccs2)cc1 (centres unmarked)	18%
Cc1ccc(S(=O)(=O)CCC(=O)Nc2nc(-c3cccnc3)cs2)cc1	22.3%
COc1ccc2oc(-c3ccccc3)c(C(=O)N3CCOCC3)c2c1	-8.44%
NC(=O)CSc1nnc(Cc2ccc3c(c2)OCO3)o1	18.1%
Cn1c(=O)c2c(nc(CN3CCc4ccccc4C3)n2CCCO)n(C)c1=O	-1.23%
CC1=CC(C)(C)n2c(O)c(C3=NC(=S)NC3=O)c3cc(OC(=O)c4cccc5ccccc45)cc1c32	1.23%
O=C(COc1ccc(NC(=O)c2cccs2)cc1)c1ccc(F)cc1	16.1%

Structure (SMILES)	hERG current change (%, negative = inhibition) at 10uM
CCCc1ccc(OCCNC(=O)c2ccccc2Br)cc1	-8.41%
COc1ccc(S(=O)(=O)Nc2cc(C(=O)NCCCOC(C)C)ccc2N2CCOCC2)cc1	-27.1%
Cc1ccc(C)c(NC(=O)CN(C)C(=O)Cc2coc3cc(C)c(C)cc23)c1	11.8%
COc1ccc(-c2nc(N)nc(C(F)(F)F)c2-c2csc(C)n2)c(O)c1	3.66%
COc1cc(/C=N/N(C)C2=NS(=O)(=O)c3ccccc32)cc(OC)c1OC	7.82%
Cc1ccccc1OCC(=O)OCC(=O)Nc1cc(S(C)(=O)=O)ccc1Cl	5.58%
CCN(CC)S(=O)(=O)c1ccc(N2CCOCC2)c(NC(=O)c2c3c(nc4ccccc24)CCC3)c1	-0.0112%
COC(=O)c1ccc(CC(=O)c2nc3ccccc3s2)cc1	5.7%
COc1cccc(C(=O)C[n+]2cccc3cc(OC)ccc32)c1.[Br-]	4.65%
Cn1cc(NC(=O)Nc2ccc(C(F)(F)F)cc2)c(C(F)(F)F)n1	3.28%
Cc1ccc(NC(=O)COC(=O)c2ccc(=O)n(Cc3ccccc3)n2)cc1F	10.7%
COc1ccc(C(=O)NC2CCCN(Cc3ccc(Cl)cc3)C2)c(OC)c1 (centres unmarked)	-79.5%
C=CCn1c(SCC(=O)N(C)C2CCS(=O)(=O)C2)nc2ccccc2c1=O (centres unmarked)	-50%
O=C(c1ccccc1)N(C1=NCCCCS1)c1ccccc1	-4.83%
CCOc1cc(CNc2ccccc2SC)ccc1O	6.15%
Cc1cc(C(=O)NCCc2ccccc2)ccc1[N+](=O)[O-]	-4.7%
CC(=O)Nc1nonc1NC(=O)CSc1nc2ccccc2o1	-6.62%
CCC(=O)Nc1ccc(NC(=O)CSc2nnnn2C(C)C)cc1	-0.728%
Fc1ccc(CNC(=S)Nc2ccccc2F)cc1	0.377%
COc1ccc(CCNC(=O)CSc2nnc(Cc3csc(N)n3)n2C)cc1OC	-4.69%

From PMC4336329 (PLoS ONE, 2015)
